Assay [1] deals with T1, CD82 (Tspan-27) (human (endogenous in A2780, OVCAR-3, SKOV-3 and A2780cis cells)) (UniProt P27701).
T1 sequence: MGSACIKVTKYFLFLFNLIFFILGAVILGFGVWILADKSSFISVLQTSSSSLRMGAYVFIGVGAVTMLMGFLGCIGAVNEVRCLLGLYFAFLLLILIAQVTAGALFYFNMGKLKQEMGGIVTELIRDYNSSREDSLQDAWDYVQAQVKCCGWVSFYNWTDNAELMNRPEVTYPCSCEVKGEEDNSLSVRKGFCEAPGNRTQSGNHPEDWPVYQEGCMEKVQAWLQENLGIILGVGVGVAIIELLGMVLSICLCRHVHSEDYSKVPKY
Kind of assay: condition: only cells treated with 50 μM 2-BP (palmitoylation inhibitor); co-IP; OVCAR-3 cells treated with the palmitoylation inhibitor 2-BP (50 μM, 20 h, 37 °C), RIPA buffer; anti-CD82 or anti-claudin-7 precipitates.

By UniProt entry, the sequences of proteins in these tests, tags left out.
UniProt P21926: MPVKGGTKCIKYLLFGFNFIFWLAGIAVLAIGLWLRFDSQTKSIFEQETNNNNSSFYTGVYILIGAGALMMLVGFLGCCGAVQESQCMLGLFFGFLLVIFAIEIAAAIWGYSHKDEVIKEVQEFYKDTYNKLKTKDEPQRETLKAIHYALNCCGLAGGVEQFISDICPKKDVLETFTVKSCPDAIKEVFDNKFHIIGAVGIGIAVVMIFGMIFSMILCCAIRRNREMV
UniProt O14493: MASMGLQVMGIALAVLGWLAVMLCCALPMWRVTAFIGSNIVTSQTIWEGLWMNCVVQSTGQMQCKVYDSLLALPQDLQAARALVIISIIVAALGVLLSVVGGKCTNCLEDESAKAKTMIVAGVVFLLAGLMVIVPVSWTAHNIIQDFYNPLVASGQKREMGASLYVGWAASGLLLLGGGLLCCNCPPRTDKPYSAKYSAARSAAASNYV
UniProt O15551: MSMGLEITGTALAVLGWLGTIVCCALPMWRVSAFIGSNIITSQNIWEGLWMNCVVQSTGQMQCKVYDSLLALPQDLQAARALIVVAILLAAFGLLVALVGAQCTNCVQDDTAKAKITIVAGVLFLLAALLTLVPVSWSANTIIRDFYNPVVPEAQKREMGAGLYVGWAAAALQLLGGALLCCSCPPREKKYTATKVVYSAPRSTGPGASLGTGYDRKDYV

Assay [2] addresses CD9 (Tetraspanin-29) (human (endogenous in A2780 and OVCAR-3 cells)) (UniProt P21926). Kind of assay: co-IP; A2780 cells lysed in 1% Triton X-100 buffer; lysates precipitated with antibodies to the studied molecules, western blot. Background: A western blot detects proteins with antibodies after separation by electrophoresis.
In assay [3] the target is T2, Epithelial cell adhesion molecule (EpCAM) (human (endogenous in A2780, OVCAR-3, SKOV-3 and A2780cis cells)) (UniProt P16422).
T2 sequence: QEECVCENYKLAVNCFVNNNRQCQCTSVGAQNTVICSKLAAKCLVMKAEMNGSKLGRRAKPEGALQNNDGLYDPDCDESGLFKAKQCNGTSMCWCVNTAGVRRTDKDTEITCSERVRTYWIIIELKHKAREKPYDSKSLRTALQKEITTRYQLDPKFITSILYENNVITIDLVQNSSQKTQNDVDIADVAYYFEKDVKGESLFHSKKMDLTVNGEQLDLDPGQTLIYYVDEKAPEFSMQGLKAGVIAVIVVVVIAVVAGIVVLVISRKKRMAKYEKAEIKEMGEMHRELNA
The description is as above.

The target in assay [4] is T2, Epithelial cell adhesion molecule (EpCAM) (human (endogenous in A2780, OVCAR-3, SKOV-3 and A2780cis cells)). Nature of the assay: co-IP; OVCAR-3 cells lysed in 1% Triton X-100 buffer; lysates precipitated with antibodies to the studied molecules, western blot.
Assay [5] concerns the target claudin-4 (human (endogenous in A2780, OVCAR-3, SKOV-3 and A2780cis cells)) (UniProt O14493). Kind of assay: co-IP; A2780 cells lysed in 1% Triton X-100 buffer; lysates precipitated with antibodies to the studied molecules, western blot.
In assay [6] the target is T3, claudin-7 (human (endogenous in A2780, OVCAR-3, SKOV-3 and A2780cis cells)) (UniProt O95471).
T3 sequence: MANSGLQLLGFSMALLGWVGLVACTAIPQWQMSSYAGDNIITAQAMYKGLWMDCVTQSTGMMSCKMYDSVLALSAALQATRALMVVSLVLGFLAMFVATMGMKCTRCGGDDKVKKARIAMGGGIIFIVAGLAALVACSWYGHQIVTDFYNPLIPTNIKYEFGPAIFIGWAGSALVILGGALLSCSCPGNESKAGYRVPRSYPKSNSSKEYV
Nature of the assay: cross-linking + co-IP; A2780 cells treated with the membrane-impermeable cross-linker DTSSP (1 mM, 30 min, 37 °C), lysed in RIPA buffer; anti-CD82 or anti-claudin-7 precipitates.

Assay [7] concerns the target claudin-3 (human (endogenous in A2780, OVCAR-3 and SKOV-3 cells)) (UniProt O15551). Kind of assay: co-IP; OVCAR-3 cells lysed in 1% Triton X-100 buffer; lysates precipitated with antibodies to the studied molecules, western blot.
Assay [8] addresses T3, claudin-7 (human (endogenous in A2780, OVCAR-3, SKOV-3 and A2780cis cells)). The assay is described as above.
Assay [9] concerns the target claudin-4 (human (endogenous in A2780, OVCAR-3, SKOV-3 and A2780cis cells)) (UniProt O14493). The assay is described as above.

These are yes or no findings as the source states them, for the method shown. In cells and extracts the contact can be indirect. Some results given as binding are weak or reduced against the parent protein; the word gives no strength.

Turning to claudin-4 (from UniProt O14493 1-209), the binding entry in [1] is on record as “no binding”; in assay [2], “binds”; in [3] it was “binds weakly”; in assay [4], “binds”.

B1: Epithelial cell adhesion molecule (EpCAM) (protein, UniProt P16422 24-314)
chain: QEECVCENYKLAVNCFVNNNRQCQCTSVGAQNTVICSKLAAKCLVMKAEMNGSKLGRRAKPEGALQNNDGLYDPDCDESGLFKAKQCNGTSMCWCVNTAGVRRTDKDTEITCSERVRTYWIIIELKHKAREKPYDSKSLRTALQKEITTRYQLDPKFITSILYENNVITIDLVQNSSQKTQNDVDIADVAYYFEKDVKGESLFHSKKMDLTVNGEQLDLDPGQTLIYYVDEKAPEFSMQGLKAGVIAVIVVVVIAVVAGIVVLVISRKKRMAKYEKAEIKEMGEMHRELNA
With B1, the binding entry in [5] is reported as “binds weakly”; in [6] it was “binds”; in assay [7], “binds”; in assay [8], “binds”; in assay [9], “binds”.
